Read counts are not given, so values of variants with three or more changes are uncertain.
B1: LINE1-full (parent)
chain: UACGUAGGUGGUUUUCCCCUGAUAGUGCUAAGGGGGCCUGGAAGUUUGGACUGGGCAGAGCUCAACACAGCGUGGCAAAGUGGCUGUGGCUAGACUGCCUCUCUGGAUUCCUCGUCACUCAGCAGGGCAUCUCUGAGAGAAAUGCC

Variants of: B1
Assay: self-cleavage, relative activity (ratio to wild type); higher = more cleavage; in vitro, sequencing; the parent is a self-cleaving ribozyme
Work on A31U A64U A117G U132C A141G yielded a self-cleavage of 1.21.
In the case of A31U A65U A79U A117U, the self-cleavage is reported as 0.26.
A31U A67U U85A A92G U134C showed a self-cleavage of 0.14.
Work on A31U A69G U81A yielded a self-cleavage of 0.6.
With A31U A69G U109A A138G the self-cleavage was 0.78.
For A31U A77G C84U A107G A129G A140G, the self-cleavage was 0.21.
In the case of A31U A78U U96C A117G, the self-cleavage is reported as 0.
Work on A31U A79G U115C yielded a self-cleavage of 1.08.
In the case of A31U A94G A141G A142G, the self-cleavage is reported as 0.
A31U A107G A138G showed a self-cleavage of 1.44.
A31U A107G U112C gave a self-cleavage of 1.77.
A31U A117C G144U showed a self-cleavage of 1.14.
Variant A31U A124G C145U has a self-cleavage of 0.
A31U C37G U47G C56A U100C U134C gave a self-cleavage of 0.29.
A31U C37G U100A gave a self-cleavage of 0.95.
A31U C51A A107C gave a self-cleavage of 1.23.
For A31U C61U U132A A138G, the self-cleavage was 0.12.
Work on A31U C98G A138U A142G yielded a self-cleavage of 0.13.
Variant A31U C118U C123A A141G has a self-cleavage of 1.65.
For A31U G33A A69G U73G A79G A129U, the self-cleavage was 0.67.
A31U G33U G35U U115C showed a self-cleavage of 1.05.
A31U G34A G35U G53U A138G gave a self-cleavage of 2.3.
Variant A31U G36C U73A A121U has a self-cleavage of 1.1.
In the case of A31U G40U U62C A67C U119A G137A A138G, the self-cleavage is reported as 0.
A31U G40U U62C U104G showed a self-cleavage of 0.06.
Variant A31U G44A A65G U87C has a self-cleavage of 0.08.
Work on A31U G44U A140G yielded a self-cleavage of 0.97.
For A31U G53A U62C G127A A136G, the self-cleavage was 0.04.
In the case of A31U G74A A117G U119C U130C, the self-cleavage is reported as 1.07.
Variant A31U U39A C90A A141G has a self-cleavage of 0.04.
With A31U U39A G53U A92U U100C the self-cleavage was 0.22.
For A31U U45C U62C G72U, the self-cleavage was 0.1.
Variant A31U U47A U96C A136G has a self-cleavage of 0.25.
A31U U47C A64G U109A gave a self-cleavage of 0.
Work on A31U U47C U134C yielded a self-cleavage of 0.72.
A31U U52A A67G U119C A136G gave a self-cleavage of 0.
For A31U U52C A77U A138U, the self-cleavage was 1.26.
Variant A31U U52G U73A has a self-cleavage of 0.98.
A31U U62C U102C showed a self-cleavage of 0.
With A31U U73A A77U the self-cleavage was 1.45.
In the case of A31U U73C U102A, the self-cleavage is reported as 1.49.
In the case of A31U U81C G106A A141G, the self-cleavage is reported as 0.69.
For A31U U85C G114C C120A, the self-cleavage was 0.13.
In the case of A31U U85C U104C, the self-cleavage is reported as 0.3.
For A31U U87A U96A A124G, the self-cleavage was 0.05.
Work on A31U U96C U112C A136G yielded a self-cleavage of 0.
Work on A31U U100C A142G yielded a self-cleavage of 1.31.
In the case of A31U U112C U130C, the self-cleavage is reported as 0.57.
In the case of A31U U115A A138G, the self-cleavage is reported as 0.88.
Work on A31U U119G G122U yielded a self-cleavage of 0.85.
For A31U U130C A141G, the self-cleavage was 1.6.
G32A A42G U108A gave a self-cleavage of 0.88.
Variant G32A A43U A124G has a self-cleavage of 1.25.
G32A A59C A79G showed a self-cleavage of 0.39.
Variant G32A A59C U87A has a self-cleavage of 0.02.
G32A A59G A77G gave a self-cleavage of 0.12.
Variant G32A A59G U85C U104C A140G has a self-cleavage of 0.
For G32A A64U U115C, the self-cleavage was 0.41.
For G32A A67G U115A A121G, the self-cleavage was 0.17.
For G32A A69U G72A, the self-cleavage was 0.05.
Work on G32A A77G A79G yielded a self-cleavage of 0.71.
For G32A A77G U96A, the self-cleavage was 0.07.
With G32A A79G U104C the self-cleavage was 0.87.
G32A A117G G126A showed a self-cleavage of 1.47.
G32A C66U U104A A141G gave a self-cleavage of 0.05.
In the case of G32A G33A U104C, the self-cleavage is reported as 1.05.
In the case of G32A G34A U52A A107G U143A, the self-cleavage is reported as 0.66.
G32A G53U A121U gave a self-cleavage of 2.06.
For G32A G55U U62C G114U A136G A142G, the self-cleavage was 0.06.
G32A G72A U100C A117G U119C showed a self-cleavage of 1.7.
With G32A G75C A78G the self-cleavage was 0.19.
G32A U39C U52G A94U A121G gave a self-cleavage of 1.59.
For G32A U47A A59G U91C U109G A138G, the self-cleavage was 0.
G32A U47A A124U gave a self-cleavage of 0.88.
In the case of G32A U47C U130C, the self-cleavage is reported as 1.67.
Work on G32A U52C A57G U81A U85A A142G yielded a self-cleavage of 0.04.
G32A U52C A67U U134A gave a self-cleavage of 0.07.
Work on G32A U52C C84G U134C yielded a self-cleavage of 0.16.
G32A U52G C56U A77G U87A A117G showed a self-cleavage of 0.06.
For G32A U62C C123A, the self-cleavage was 0.04.
G32A U85A U104A A121U showed a self-cleavage of 0.17.
Work on G32A U96A A107G yielded a self-cleavage of 0.09.
In the case of G32A U96C C131G, the self-cleavage is reported as 0.04.
In the case of G32A U100C U119A, the self-cleavage is reported as 1.49.
For G32A U100C U130C A136G, the self-cleavage was 2.67.
For G32A U109G U134A, the self-cleavage was 0.52.
Work on G32A U119C U132C yielded a self-cleavage of 1.87.
G32A U134C U143C gave a self-cleavage of 1.48.
Work on G32C A43G G114U A124G U130A G137C yielded a self-cleavage of 2.3.
In the case of G32C U47C U104C A138G A142C, the self-cleavage is reported as 1.41.
Variant G32C U52C U96C A136G G137A has a self-cleavage of 0.
Variant G32U A42G G80A A107G U143A has a self-cleavage of 1.07.
Work on G32U A77U A78G A136G yielded a self-cleavage of 1.22.
Work on G32U A79G U119C yielded a self-cleavage of 1.19.
For G32U C37G A57G U87C, the self-cleavage was 0.1.
Variant G32U G86U U100C A124U has a self-cleavage of 0.23.
G32U U39A G41A G97U gave a self-cleavage of 0.08.
G32U U39C U47C U109A A140G gave a self-cleavage of 0.34.
For G32U U45C U132C, the self-cleavage was 1.41.
With G32U U47A C123A U132C the self-cleavage was 1.22.
G32U U62A U143C gave a self-cleavage of 0.02.
Work on G32U U102C U104A yielded a self-cleavage of 0.92.
Variant G33A A50G G72C A78G C95A has a self-cleavage of 0.01.
With G33A A50G U102C the self-cleavage was 0.62.
Work on G33A A50U U73A A79G A117G U130C A136G yielded a self-cleavage of 0.53.
In the case of G33A A57G A79G, the self-cleavage is reported as 0.81.
G33A A57G G93U A124U gave a self-cleavage of 0.06.
For G33A A57G U85C A107G, the self-cleavage was 0.27.
For G33A A59G C133U A140G, the self-cleavage was 0.04.
Variant G33A A59U C120U has a self-cleavage of 0.89.
G33A A59U U73C showed a self-cleavage of 1.04.
For G33A A65G A92G, the self-cleavage was 0.
G33A A78U U81C showed a self-cleavage of 1.49.
G33A A79G U143C gave a self-cleavage of 0.5.
With G33A A92G A121U the self-cleavage was 0.09.
With G33A A94G C103A the self-cleavage was 0.32.
For G33A G60U U132C, the self-cleavage was 0.12.
Variant G33A G97A C113U has a self-cleavage of 0.13.
G33A U39G A64G showed a self-cleavage of 0.29.
G33A U45A C128U A136U gave a self-cleavage of 1.24.
G33A U45C U52A U108C gave a self-cleavage of 1.39.
With G33A U46C A65G U130C the self-cleavage was 0.1.
Variant G33A U47C U112A has a self-cleavage of 0.29.
For G33A U62C A64U U87A, the self-cleavage was 0.05.
Work on G33A U62C U134C A138G yielded a self-cleavage of 0.01.
G33A U73A C76U A107G A117G U119C showed a self-cleavage of 1.16.
Variant G33A U73C U109C has a self-cleavage of 1.34.
With G33A U87C A94U the self-cleavage was 0.12.
Variant G33A U87G U112C U115A has a self-cleavage of 0.
Work on G33A U96C U108C yielded a self-cleavage of 0.05.
G33A U104G C145U gave a self-cleavage of 0.61.
Variant G33C U62C U132C A140G has a self-cleavage of 0.13.
Work on G33U A50U U119A A142G yielded a self-cleavage of 1.19.
G33U A64G U115C A124U gave a self-cleavage of 0.11.
Work on G33U A69U A77U yielded a self-cleavage of 0.04.
G33U A69U C118U U130A gave a self-cleavage of 0.04.
G33U A94G A121G U132C showed a self-cleavage of 0.17.
With G33U G34A U102A A129G the self-cleavage was 1.35.
G33U G41U G49A gave a self-cleavage of 0.98.
With G33U U46C U52C U85C A92U U132A the self-cleavage was 0.
G33U U46C U143A showed a self-cleavage of 1.4.
For G33U U52C A142G, the self-cleavage was 1.11.
G33U U81A U115C A142U showed a self-cleavage of 2.31.
Work on G33U U96C A136G yielded a self-cleavage of 0.1.
With G34A A42G U46A the self-cleavage was 1.13.
G34A A50G C56U A78U gave a self-cleavage of 0.05.
For G34A A50G U52A A67G, the self-cleavage was 0.42.
Variant G34A A57G A141G has a self-cleavage of 1.22.
G34A A57G U96C showed a self-cleavage of 1.81.
Variant G34A A57G U143C has a self-cleavage of 0.95.
With G34A A65U U81C the self-cleavage was 0.04.
For G34A A69U A129U, the self-cleavage was 0.06.
Variant G34A A79G C110U has a self-cleavage of 1.29.
In the case of G34A A92G C101A U132A, the self-cleavage is reported as 0.05.
Work on G34A C90U U96C yielded a self-cleavage of 0.07.
For G34A C128U A129G, the self-cleavage was 1.22.
For G34A G48U A57G A65G A78U G106A G135A A142G, the self-cleavage was 0.02.
In the case of G34A G48U A107G, the self-cleavage is reported as 1.01.
In the case of G34A U39A A50G U104C A140G, the self-cleavage is reported as 1.67.
In the case of G34A U39A U115C A129U, the self-cleavage is reported as 1.48.
For G34A U39C A59U C76U, the self-cleavage was 1.31.
G34A U45G U62A A64G U87A showed a self-cleavage of 0.06.
With G34A U47A A69G A138U the self-cleavage was 0.13.
With G34A U81A U108C C116U A140U the self-cleavage was 2.22.
G34A U85C C145U gave a self-cleavage of 0.12.
In the case of G34A U112G A142U, the self-cleavage is reported as 1.58.
G34A U115A A129G gave a self-cleavage of 1.27.
